From the supplement of paper PMC12067230
Single values of this set are uncertain.

Assay: amyloid nucleation score relative to library mode (yeast Sup35 reporter selection) (log enrichment difference); higher = more amyloid nucleation; sequences are the first 22 residues of the Bri2 peptide extended by up to 12 random residues
Conditions: random library (experiment): 1;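 active = nucleation score significantly above 0 at FDR 0.05; inactive = not significantly above 0 or absent from output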
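Note: [psi-pin-] Saccharomyces cerevisiae expressing SupN fusions, induced by 100 µM Cu2SO4, selected 7 d at 30 °C without adenine and uracil, scored by deep sequencing of output versus input.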

| Sequence | amyloid nucleation score |
| --- | --- |
| EASNCFAIRHFENKFAVETLICHFCLPMINRIDC | inactive |
| EASNCFAIRHFENKFAVETLICHFFS | 8.88 |
| EASNCFAIRHFENKFAVETLICHFGAG | 6.83 |
| EASNCFAIRHFENKFAVETLICHFGCCFLASHFS | 7.73 |
| EASNCFAIRHFENKFAVETLICHFHCGCDTTLFH | 8.95 |
| EASNCFAIRHFENKFAVETLICHFQWRDLSGELR | 2.59 |
| EASNCFAIRHFENKFAVETLICHFSHESYSFKVL | -0.187 |
| EASNCFAIRHFENKFAVETLICHFTRVFFLRFAL | inactive |
| EASNCFAIRHFENKFAVETLICHGAW | inactive |
| EASNCFAIRHFENKFAVETLICHGCAELAIGGLG | inactive |
| EASNCFAIRHFENKFAVETLICHGCCKSEYYME | 6.8 |
| EASNCFAIRHFENKFAVETLICHGDRIHL | inactive |
| EASNCFAIRHFENKFAVETLICHGGFGAACGVEA | inactive |
| EASNCFAIRHFENKFAVETLICHGGNCIWVYWHE | inactive |
| EASNCFAIRHFENKFAVETLICHGGR | inactive |
| EASNCFAIRHFENKFAVETLICHGLSRLTCRARQ | inactive |
| EASNCFAIRHFENKFAVETLICHGSVTAVMDLEG | -0.00976 |
| EASNCFAIRHFENKFAVETLICHHAYGIQKFSSR | 2.15 |
| EASNCFAIRHFENKFAVETLICHHGAISKLRCMT | inactive |
| EASNCFAIRHFENKFAVETLICHHLSTCSTGSRQ | 3.35 |
| EASNCFAIRHFENKFAVETLICHHRMRASSNRTW | 3.79 |
| EASNCFAIRHFENKFAVETLICHHTGIVIKSSCV | inactive |
| EASNCFAIRHFENKFAVETLICHHW | inactive |

| Sequence | amyloid nucleation score |
| --- | --- |
| EASNCFAIRHFENKFAVETLICHIGGEGSHRARL | 3.37 |
| EASNCFAIRHFENKFAVETLICHILVPREMFEVR | 2.93 |
| EASNCFAIRHFENKFAVETLICHINVVIGYDGGG | 7.08 |
| EASNCFAIRHFENKFAVETLICHIP | -0.129 |
| EASNCFAIRHFENKFAVETLICHIPGILPHYVPM | 0.706 |
| EASNCFAIRHFENKFAVETLICHISIAD | 6.83 |
| EASNCFAIRHFENKFAVETLICHISLGSLEVSWG | inactive |
| EASNCFAIRHFENKFAVETLICHIVNRDRHAWQ | 4.83 |
| EASNCFAIRHFENKFAVETLICHKSFGDRERKRR | inactive |
| EASNCFAIRHFENKFAVETLICHL | 4.83 |
| EASNCFAIRHFENKFAVETLICHLADECIYEVTA | inactive |
| EASNCFAIRHFENKFAVETLICHLADMMSRRSGV | inactive |
| EASNCFAIRHFENKFAVETLICHLCEPIQRVCA | inactive |
| EASNCFAIRHFENKFAVETLICHLESRRVWSRNT | 2.45 |
| EASNCFAIRHFENKFAVETLICHLGFGSRRGTSS | 1.97 |
| EASNCFAIRHFENKFAVETLICHLINIHGPSEWL | 6.24 |
| EASNCFAIRHFENKFAVETLICHLLLDG | inactive |
| EASNCFAIRHFENKFAVETLICHLLS | inactive |
| EASNCFAIRHFENKFAVETLICHLLSS | inactive |
| EASNCFAIRHFENKFAVETLICHLLTERHANRAR | 0.458 |
| EASNCFAIRHFENKFAVETLICHLMCFVGWFEGG | 0.176 |
| EASNCFAIRHFENKFAVETLICHLMYRPLCRDNV | inactive |
| EASNCFAIRHFENKFAVETLICHLNCTYYAGVER | 8.12 |

Same assay, conditions: random library (experiment): 2

| Sequence | amyloid nucleation score |
| --- | --- |
| EASNCFAIRHFENKFAVETLICHFEMLE | inactive |
| EASNCFAIRHFENKFAVETLICHFGYGRY | 5.14 |
| EASNCFAIRHFENKFAVETLICHFKRLRVKEWAV | 5.43 |
| EASNCFAIRHFENKFAVETLICHFLDNHLVMVMW | inactive |
| EASNCFAIRHFENKFAVETLICHFSGSIKRLLAC | inactive |
| EASNCFAIRHFENKFAVETLICHFSVHWSYCSRF | inactive |
| EASNCFAIRHFENKFAVETLICHFTNLRWCFFVG | 3.42 |
| EASNCFAIRHFENKFAVETLICHFV | 5.71 |
| EASNCFAIRHFENKFAVETLICHFYMVSCSRFDV | 2.09 |
| EASNCFAIRHFENKFAVETLICHGCFDHFLLTFR | inactive |
| EASNCFAIRHFENKFAVETLICHGFWRYNKYLVV | inactive |
| EASNCFAIRHFENKFAVETLICHGGVNSSVPVRV | inactive |
| EASNCFAIRHFENKFAVETLICHGRANTFMQHCT | inactive |
| EASNCFAIRHFENKFAVETLICHGRMDHFNKSPL | 2.03 |
| EASNCFAIRHFENKFAVETLICHGRNGVVIMDEV | inactive |
| EASNCFAIRHFENKFAVETLICHGSCVGEQYINK | 5.8 |
| EASNCFAIRHFENKFAVETLICHGSGRCHDMYWG | 3.22 |
| EASNCFAIRHFENKFAVETLICHGTKTTLPRFM | 1.58 |
| EASNCFAIRHFENKFAVETLICHGVLDSSLRCLF | 3.2 |
| EASNCFAIRHFENKFAVETLICHHYLLAMSIVTI | inactive |

| Sequence | amyloid nucleation score |
| --- | --- |
| EASNCFAIRHFENKFAVETLICHIKGLVP | inactive |
| EASNCFAIRHFENKFAVETLICHILFVHFSRTLK | inactive |
| EASNCFAIRHFENKFAVETLICHILHTRLQFRSW | inactive |
| EASNCFAIRHFENKFAVETLICHINFFHWFGWVI | inactive |
| EASNCFAIRHFENKFAVETLICHIRAMPSISDPH | inactive |
| EASNCFAIRHFENKFAVETLICHIRFSGMQCSNG | 3.99 |
| EASNCFAIRHFENKFAVETLICHISIKGLCNRL | 2.98 |
| EASNCFAIRHFENKFAVETLICHISWMIYQSIMR | inactive |
| EASNCFAIRHFENKFAVETLICHIWRSG | 2.41 |
| EASNCFAIRHFENKFAVETLICHIYAAGQFYRVC | inactive |
| EASNCFAIRHFENKFAVETLICHIYVYVYKLLTV | inactive |
| EASNCFAIRHFENKFAVETLICHKNMIDWAMPHF | -0.372 |
| EASNCFAIRHFENKFAVETLICHKVY | inactive |
| EASNCFAIRHFENKFAVETLICHKWILRHYYGFG | inactive |
| EASNCFAIRHFENKFAVETLICHLASG | inactive |
| EASNCFAIRHFENKFAVETLICHLFKNYSTFDKG | inactive |
| EASNCFAIRHFENKFAVETLICHLHIRNNRIHPG | 5.88 |
| EASNCFAIRHFENKFAVETLICHLLIAIPCDFS | 4.79 |
| EASNCFAIRHFENKFAVETLICHLLLIDFVWFKQ | inactive |
| EASNCFAIRHFENKFAVETLICHLMGLFVDGWVV | inactive |

Same assay, conditions: random library (experiment): 3

| Sequence | amyloid nucleation score |
| --- | --- |
| EASNCFAIRHFENKFAVETLICHFETNCVGVPRV | 4.98 |
| EASNCFAIRHFENKFAVETLICHFM | 7.47 |
| EASNCFAIRHFENKFAVETLICHFPVWSRGRWPG | 5.5 |
| EASNCFAIRHFENKFAVETLICHFQWDRG | 2.32 |
| EASNCFAIRHFENKFAVETLICHFRIVCM | inactive |
| EASNCFAIRHFENKFAVETLICHFVSMPMQVREM | 2.76 |
| EASNCFAIRHFENKFAVETLICHGCGKRKARRWR | 4.88 |
| EASNCFAIRHFENKFAVETLICHGGELVRGVYGV | -0.281 |
| EASNCFAIRHFENKFAVETLICHGGVLPRGKPAP | 0.749 |
| EASNCFAIRHFENKFAVETLICHGKSCMAMVRME | inactive |
| EASNCFAIRHFENKFAVETLICHGRCQEGVCGSC | inactive |
| EASNCFAIRHFENKFAVETLICHGSHVLHTAMTL | 2.41 |
| EASNCFAIRHFENKFAVETLICHGSPYT | inactive |
| EASNCFAIRHFENKFAVETLICHGSSNLRYRLHR | 4.16 |
| EASNCFAIRHFENKFAVETLICHGTFFDAMCEGS | inactive |
| EASNCFAIRHFENKFAVETLICHGWRRQGGGGDW | 3.57 |
| EASNCFAIRHFENKFAVETLICHHSPYFYVPV | 0.0748 |
| EASNCFAIRHFENKFAVETLICHHVVVHTRYCVM | 4.13 |

| Sequence | amyloid nucleation score |
| --- | --- |
| EASNCFAIRHFENKFAVETLICHIASLWLSQRRG | inactive |
| EASNCFAIRHFENKFAVETLICHIGNVLLTFWAK | inactive |
| EASNCFAIRHFENKFAVETLICHIMFVGLYVSEH | inactive |
| EASNCFAIRHFENKFAVETLICHIPY | inactive |
| EASNCFAIRHFENKFAVETLICHIRPSHVVWVVE | inactive |
| EASNCFAIRHFENKFAVETLICHKC | 0.632 |
| EASNCFAIRHFENKFAVETLICHKLPLD | inactive |
| EASNCFAIRHFENKFAVETLICHKMFTVCMAGVR | inactive |
| EASNCFAIRHFENKFAVETLICHKRAHYVWMNC | inactive |
| EASNCFAIRHFENKFAVETLICHLCARGMNAYGG | 3.25 |
| EASNCFAIRHFENKFAVETLICHLCMECRIAVPS | 1.98 |
| EASNCFAIRHFENKFAVETLICHLHRVGREAAWA | 0.768 |
| EASNCFAIRHFENKFAVETLICHLL | 5.78 |
| EASNCFAIRHFENKFAVETLICHLLEDS | inactive |
| EASNCFAIRHFENKFAVETLICHLLWAGKLWAWY | inactive |
| EASNCFAIRHFENKFAVETLICHLMLTCW | inactive |
| EASNCFAIRHFENKFAVETLICHLMMYTVSSS | inactive |
